# The campaign covered roughly 310,000 compounds. About 2,200 (0.71%) showed an effect of 50% or more. Effects have a minus sign here. The list shows a part of the results.
# Molecular target: human ether-à-go-go-related gene (hERG) potassium channel (human, UniProt Q12809)
# Assay: primary screen, population patch clamp on CHO cells stably expressing hERG
# Chain of human ether-à-go-go-related gene (hERG) potassium channel (Q12809 whole entry, looked up): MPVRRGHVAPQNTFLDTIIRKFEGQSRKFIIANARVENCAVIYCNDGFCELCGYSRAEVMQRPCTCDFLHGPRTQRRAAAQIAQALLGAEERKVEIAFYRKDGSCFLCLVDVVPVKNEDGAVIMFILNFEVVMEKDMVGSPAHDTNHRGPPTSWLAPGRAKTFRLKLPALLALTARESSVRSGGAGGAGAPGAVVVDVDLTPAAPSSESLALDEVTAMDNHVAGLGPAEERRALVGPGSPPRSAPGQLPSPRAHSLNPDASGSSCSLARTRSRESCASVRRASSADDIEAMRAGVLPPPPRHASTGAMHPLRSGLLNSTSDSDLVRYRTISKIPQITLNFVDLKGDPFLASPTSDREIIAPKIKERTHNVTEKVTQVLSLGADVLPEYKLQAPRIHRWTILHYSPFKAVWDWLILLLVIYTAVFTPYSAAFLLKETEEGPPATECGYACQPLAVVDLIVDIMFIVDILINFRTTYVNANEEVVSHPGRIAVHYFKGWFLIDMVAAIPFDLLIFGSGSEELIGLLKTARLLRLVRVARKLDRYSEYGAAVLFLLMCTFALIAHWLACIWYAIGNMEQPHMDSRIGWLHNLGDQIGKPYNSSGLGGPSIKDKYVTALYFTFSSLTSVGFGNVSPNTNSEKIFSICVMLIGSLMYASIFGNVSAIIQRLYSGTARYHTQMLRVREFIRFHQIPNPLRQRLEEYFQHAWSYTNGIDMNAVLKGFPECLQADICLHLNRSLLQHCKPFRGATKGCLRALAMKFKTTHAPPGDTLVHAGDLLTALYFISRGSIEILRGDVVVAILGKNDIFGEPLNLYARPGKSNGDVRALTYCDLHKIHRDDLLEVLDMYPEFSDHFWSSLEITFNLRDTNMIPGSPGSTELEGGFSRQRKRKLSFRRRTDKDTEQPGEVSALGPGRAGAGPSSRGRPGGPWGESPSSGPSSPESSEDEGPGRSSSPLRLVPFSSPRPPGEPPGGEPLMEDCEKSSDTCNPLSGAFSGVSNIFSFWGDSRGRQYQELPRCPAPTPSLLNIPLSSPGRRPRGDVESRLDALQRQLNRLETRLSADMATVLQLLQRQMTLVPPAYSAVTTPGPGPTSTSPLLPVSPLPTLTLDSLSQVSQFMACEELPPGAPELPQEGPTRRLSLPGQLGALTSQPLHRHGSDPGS
row,Compound,"hERG current change (%, negative = inhibition) at 1uM [%]"
1,Cc1cc(NC(=O)C2CCCCC2)ccc1NC(=O)c1ccccc1Cl,10.4
2,O=c1cc(CSc2nnc(Nc3ccccc3)s2)nc2sccn12,11.9
3,CNC(=S)Nc1ccc(C)c(NC(=S)NC)c1,4.04
4,COCCNC(=O)COC(=O)/C=C/c1cnc2ccccc2n1,7.92
5,O=C(O)C1CC=CCC1C(=O)N1CCN(c2nc(-c3ccccc3)c3ccccc3n2)CC1 (stereo not shown),10.3
6,COc1cc(C(=O)Nc2ccc3c(c2)OCO3)ccc1OCc1c(C)noc1C,20.7
7,CC(C)=CCCC1=CCC(/C(C)=N/NC(N)=O)CC1 (stereo not shown),-19
8,COc1ccc(C(=O)CC(=O)C(=O)Nc2ccc(Cl)cc2)cc1,3.93
9,CCOc1ccc(CSC(=N)N)cc1Cl.Cl,12.9
10,S=C(NCc1ccco1)Nc1cc(-c2ccccc2)[nH]n1,-14.6
11,Cc1cccc(N(Cc2ccccc2)C(=O)c2ccccc2F)c1,8.37
12,Cc1ccc(NC(=O)c2cccc(NC3=NC4CS(=O)(=O)CC4S3)c2)cc1 (stereo not shown),6.56
13,Cc1ccc(CN(Cc2ccco2)C(=O)c2ccco2)cc1,7.66
14,O=C(COC(=O)c1ccccn1)c1ccc([N+](=O)[O-])cc1,3.17
15,CC(O)c1nc2ccccc2n1CCCOc1ccccc1 (stereo not shown),13.7
16,COc1ccc(NS(=O)(=O)c2cc(C(=O)OC(C)C(=O)N3CCOCC3)ccc2Cl)cc1 (stereo not shown),14.8
17,O=C(N/N=C/C(Br)=C/c1ccccc1)NC1CCCCC1,9.96
18,Cc1ccc(C)c(-n2c(-c3ccc(Br)cc3)csc2=NC(=O)c2ccccc2F)c1,10.1
19,O=C(Nc1ccccc1)C1CC2CCCC(C1)C2=O (stereo not shown),1.67
20,O=C(O)Cn1ncc2ccccc2c1=O,13.6

row,Compound,"hERG current change (%, negative = inhibition) at 1uM [%]"
1,O=C(NCCC(c1ccccc1)c1ccccc1)c1ccc(Br)o1,6.74
2,O=[N+]([O-])c1cnc2ccccc2c1,0.449
3,CCc1ccc2oc(C(=O)N3CCN(c4ccc(OC)cc4)CC3)cc(=O)c2c1,1.45
4,CCn1c(SCC(=O)Nc2nc(C)cs2)nnc1-c1ccncc1,8.16
5,CN1CCSc2ccc(C(=O)Nc3cccc(F)c3)cc21,-2.18
6,COc1ccc(F)cc1S(=O)(=O)NCc1cc(=O)n(C)c(=O)n1C,15
7,CCN(c1cccc(C)c1)c1nc2ccsc2c(=O)s1,3.58
8,Cc1cccc(NC(=O)CCC2CCN(C(=O)C3CC=CCC3)CC2)c1 (stereo not shown),6.89
9,CC(=O)c1cccc(OCc2cc(C(=O)NC(C)Cc3cccnc3)no2)c1 (stereo not shown),0.518
10,Br.C=CCN1CCc2cccc3c2[C@H]1Cc1ccc(O)c(O)c1-3,8.51
11,Cc1noc(C)c1S(=O)(=O)N1CCC(C(=O)Nc2ccc(OC(F)(F)F)cc2)CC1,7.5
12,COc1ccc(CNC(=O)C(C)Cc2ccccc2)cc1O (stereo not shown),15
13,Cc1cc(C)n(-c2ccccc2[N+](=O)[O-])n1,12
14,COc1ccc(CCC(=O)OCC(=O)Nc2ccccc2)cc1,16.5
15,Cn1c(=O)c([N+](=O)[O-])c(NCC(O)c2ccccc2)c2ccccc21 (stereo not shown),7.39
16,Cc1cc(C(=O)Cn2nnc3ccccc3c2=O)c(C)n1-c1ccccc1F,9.45
17,CCOc1ccc(/C=C2\SC(=O)N(c3ccc(O)cc3)C2=O)cc1OC,9.01
18,Cc1noc(NS(=O)(=O)c2ccc(NC(=O)c3ccc(Br)o3)cc2)c1C,15.9
19,Cc1cc2cc(CN(Cc3cccs3)S(=O)(=O)c3ccc4c(c3)OCCO4)c(=O)[nH]c2cc1C,10.9
20,CCOc1ccc(N2CC(C(=O)OCC(=O)NCc3ccccc3)CC2=O)cc1 (stereo not shown),-12.8

row,Compound,"hERG current change (%, negative = inhibition) at 1uM [%]"
1,N#Cc1c(N)nc(SCC(=O)C23CC4CC(CC(C4)C2)C3)c(C#N)c1-c1ccc(Cl)cc1,14.6
2,COc1ccc(C(=O)NC(=S)Nc2ccccc2N2CCCCC2)cc1[N+](=O)[O-],2.83
3,O=C(Cc1ccc(-c2ccccc2)cc1)NCc1cccnc1,-20.7
4,O=Cc1cn(-c2ccccc2)nc1-c1cc2ccccc2oc1=O,9.74
5,Fc1cccc(Nc2nc(Cl)nc(Cl)n2)c1,7.77
6,Cn1cc(/C=C/C(=O)N2CCCC(C(=O)c3ccc(C(C)(C)C)cc3)C2)cn1 (stereo not shown),2.3
7,Cc1onc(-c2ccccc2)c1C(=O)Nc1nc(-c2ccccc2)cs1,-8.54
8,COC(=O)c1ccccc1NC(=O)c1nc2nc(C)cc(C)n2n1,9.64
9,CC(=O)Nc1ccc(OCC(O)CN2CCN(c3cc(Cl)ccc3C)CC2)cc1 (stereo not shown),1.43
10,Nc1cc(-c2cccc(Br)c2)nn1Cc1ccccc1,6.44
11,O=C(NCCN1CCOCC1)C1CCC(=O)N1C1CCCCC1 (stereo not shown),6.4
12,Fc1ccc(-n2ncc3c(SCc4cccnc4)ncnc32)cc1,8.59
13,Cc1ccc(Cl)cc1NC(=O)CNCC(c1ccccc1)N(C)C.O=C(O)C(=O)O (stereo not shown),5.69
14,CCC1ON(c2ccccc2)C2c3nc4ccccc4n3CC12 (stereo not shown),14.1
15,CCn1ncc(-c2cc(C(=O)O)no2)c1C,9.66
16,CCc1cc(=O)[nH]c(SCC(=O)Nc2ccc3c(c2)OCCO3)n1,12.4
17,C/C(=N\NC(=S)Nc1ccc(F)cc1)c1ccc2c(c1)OCCO2,14.9
18,Cc1nn(CCC#N)c2nc(-c3ccccc3)cc(C(F)(F)F)c12,2.72
